Laboratory results published in the supplement of paper PMC4967469.
By IC50 is meant the dose at which the fit gives 50% viability; fits outside the tested doses are given as limits. AUC is the area under the same curve over the 256-fold range up to the top dose, as a fraction; the more sensitive the line, the further below 1. The top dose, if marked as inferred, was derived from the fitted curves, not read from the paper. Drugs with an entry number were screened twice under separate entries, and the two screens often disagree.

compound: NC(=O)[C@@H](CCC(F)(F)F)N(Cc1ccc(-c2ncon2)cc1F)S(=O)(=O)c1ccc(Cl)cc1 [BMS-708163]; assay: Viability of human cancer cell lines after 72 h of drug (GDSC screen); conditions: screen: GDSC drug entry 205; top dose inferred
Procedure: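 Human cancer cell lines in 384-well plates, medium with 10% serum, drug for 72 h over a 256-fold dose range (nine 2-fold or five 4-fold steps up to the top dose). Adherent lines were fixed and stained with the nucleic acid dye Syto60, suspension lines read with resazurin; signal relative to control wells, capped at 0 and 100%. One two-parameter sigmoid per drug and line, fitted in a mixed model over all curves with the slope shared within a line.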

Compared with “SNU-407 (large intestine, adherent, top dose 10.24 µM)”, “SNU-423 (liver, adherent, top dose 10.24 µM)” is lower in AUC: 0.98 for the first, 0.978 for the second.

First: SNU-449 (liver, adherent, top dose 10.24 µM)
Second: SNU-475 (liver, adherent, top dose 10.24 µM)
The AUC of the first is lower: 0.962 for the first, 0.991 for the second.

First: SNU-1040 (large intestine, adherent, top dose 10.24 µM)
Second: SNU-C1 (large intestine, suspension, top dose 2.56 µM)
The AUC of the first is lower: 0.971 for the first, 0.98 for the second.

Going from “SNU-C2B (large intestine, adherent, top dose 2.56 µM)” to “SNU-C5 (large intestine, adherent, top dose 10.24 µM)”, the AUC rises from 0.978 to 0.985.

First: SR (lymphoid neoplasm, suspension, top dose 10.24 µM)
Second: ST486 (Burkitt lymphoma, suspension, top dose 10.24 µM)
The AUC of the first is lower: 0.979 for the first, 0.988 for the second.

Going from “SU8686 (pancreas, adherent, top dose 10.24 µM)” to “SU-DHL-1 (anaplastic large cell lymphoma, suspension, top dose 10.24 µM)”, the AUC rises from 0.985 to 0.997.

First: SU-DHL-4 (B-cell lymphoma, suspension, top dose 10.24 µM)
Second: SU-DHL-5 (B-cell lymphoma, suspension, top dose 10.24 µM)
The AUC of the first is higher: 0.997 for the first, 0.989 for the second.

First: SU-DHL-6 (B-cell lymphoma, suspension, top dose 10.24 µM)
Second: SU-DHL-8 (B-cell lymphoma, suspension, top dose 10.24 µM)
The AUC of the first is lower: 0.973 for the first, 0.979 for the second.

First: SU-DHL-10 (B-cell lymphoma, suspension, top dose 10.24 µM)
Second: SU-DHL-16 (B-cell lymphoma, suspension, top dose 10.24 µM)
The AUC of the first is higher: 0.998 for the first, 0.972 for the second.

Compared with “SUIT-2 (pancreas, adherent, top dose 10.24 µM)”, “SUP-B15 (lymphoblastic leukaemia, suspension, top dose 10.24 µM)” is lower in AUC: 0.986 for the first, 0.978 for the second.

First: SUP-HD1 (Hodgkin lymphoma, suspension, top dose 10.24 µM)
Second: SUP-M2 (anaplastic large cell lymphoma, suspension, top dose 10.24 µM)
The AUC of the first is lower: 0.982 for the first, 0.989 for the second.

“SUP-T1 (T-cell lymphoblastic leukaemia, suspension, top dose 2.56 µM)” and “SW13 (adrenal gland, adherent, top dose 10.24 µM)” are the same in AUC: 0.988 for the first, 0.988 for the second.

First: SW48 (large intestine, adherent, top dose 2.56 µM)
Second: SW156 (kidney, adherent, top dose 10.24 µM)
The AUC of the first is higher: 0.987 for the first, 0.974 for the second.

First: SW620 (large intestine, adherent, top dose 2.56 µM)
Second: SW626 (ovary, adherent, top dose 10.24 µM)
The AUC of the first is higher: 0.99 for the first, 0.951 for the second.

Going from “SW684 (fibrosarcoma, adherent, top dose 10.24 µM)” to “SW756 (cervix, adherent, top dose 10.24 µM)”, the AUC rises from 0.982 to 0.984.

Compared with “SW780 (bladder, adherent, top dose 10.24 µM)”, “SW837 (large intestine, adherent, top dose 10.24 µM)” is lower in AUC: 0.986 for the first, 0.981 for the second.

First: SW872 (soft tissue, adherent, top dose 10.24 µM)
Second: SW900 (lung squamous cell carcinoma, adherent, top dose 10.24 µM)
The AUC of the first is higher: 0.989 for the first, 0.98 for the second.

Compared with “SW948 (large intestine, adherent, top dose 2.56 µM)”, “SW954 (urogenital system, adherent, top dose 10.24 µM)” is lower in AUC: 0.981 for the first, 0.963 for the second.

Going from “SW962 (urogenital system, adherent, top dose 10.24 µM)” to “SW982 (soft tissue, adherent, top dose 10.24 µM)”, the AUC falls from 0.981 to 0.972.

With “SW1088 (glioma, adherent, top dose 10.24 µM)” the AUC was 0.979.

“SNU-407 (large intestine, adherent, top dose 10.24 µM)” and “SNU-423 (liver, adherent, top dose 10.24 µM)” cannot be ordered by IC50: > 10.2 µM for the first, > 10.2 µM for the second.

“SNU-449 (liver, adherent, top dose 10.24 µM)” and “SNU-475 (liver, adherent, top dose 10.24 µM)” cannot be ordered by IC50: > 10.2 µM for the first, > 10.2 µM for the second.

“SNU-1040 (large intestine, adherent, top dose 10.24 µM)” and “SNU-C1 (large intestine, suspension, top dose 2.56 µM)” cannot be ordered by IC50: > 10.2 µM for the first, > 2.56 µM for the second.

“SNU-C2B (large intestine, adherent, top dose 2.56 µM)” and “SNU-C5 (large intestine, adherent, top dose 10.24 µM)” cannot be ordered by IC50: > 2.56 µM for the first, > 10.2 µM for the second.

“SR (lymphoid neoplasm, suspension, top dose 10.24 µM)” and “ST486 (Burkitt lymphoma, suspension, top dose 10.24 µM)” cannot be ordered by IC50: > 10.2 µM for the first, > 10.2 µM for the second.

“SU8686 (pancreas, adherent, top dose 10.24 µM)” and “SU-DHL-1 (anaplastic large cell lymphoma, suspension, top dose 10.24 µM)” cannot be ordered by IC50: > 10.2 µM for the first, > 10.2 µM for the second.

“SU-DHL-4 (B-cell lymphoma, suspension, top dose 10.24 µM)” and “SU-DHL-5 (B-cell lymphoma, suspension, top dose 10.24 µM)” cannot be ordered by IC50: > 10.2 µM for the first, > 10.2 µM for the second.

“SU-DHL-6 (B-cell lymphoma, suspension, top dose 10.24 µM)” and “SU-DHL-8 (B-cell lymphoma, suspension, top dose 10.24 µM)” cannot be ordered by IC50: > 10.2 µM for the first, > 10.2 µM for the second.

“SU-DHL-10 (B-cell lymphoma, suspension, top dose 10.24 µM)” and “SU-DHL-16 (B-cell lymphoma, suspension, top dose 10.24 µM)” cannot be ordered by IC50: > 10.2 µM for the first, > 10.2 µM for the second.

“SUIT-2 (pancreas, adherent, top dose 10.24 µM)” and “SUP-B15 (lymphoblastic leukaemia, suspension, top dose 10.24 µM)” cannot be ordered by IC50: > 10.2 µM for the first, > 10.2 µM for the second.

“SUP-HD1 (Hodgkin lymphoma, suspension, top dose 10.24 µM)” and “SUP-M2 (anaplastic large cell lymphoma, suspension, top dose 10.24 µM)” cannot be ordered by IC50: > 10.2 µM for the first, > 10.2 µM for the second.

“SUP-T1 (T-cell lymphoblastic leukaemia, suspension, top dose 2.56 µM)” and “SW13 (adrenal gland, adherent, top dose 10.24 µM)” cannot be ordered by IC50: > 2.56 µM for the first, > 10.2 µM for the second.

“SW48 (large intestine, adherent, top dose 2.56 µM)” and “SW156 (kidney, adherent, top dose 10.24 µM)” cannot be ordered by IC50: > 2.56 µM for the first, > 10.2 µM for the second.

“SW620 (large intestine, adherent, top dose 2.56 µM)” and “SW626 (ovary, adherent, top dose 10.24 µM)” cannot be ordered by IC50: > 2.56 µM for the first, > 10.2 µM for the second.

“SW684 (fibrosarcoma, adherent, top dose 10.24 µM)” and “SW756 (cervix, adherent, top dose 10.24 µM)” cannot be ordered by IC50: > 10.2 µM for the first, > 10.2 µM for the second.

“SW780 (bladder, adherent, top dose 10.24 µM)” and “SW837 (large intestine, adherent, top dose 10.24 µM)” cannot be ordered by IC50: > 10.2 µM for the first, > 10.2 µM for the second.

“SW872 (soft tissue, adherent, top dose 10.24 µM)” and “SW900 (lung squamous cell carcinoma, adherent, top dose 10.24 µM)” cannot be ordered by IC50: > 10.2 µM for the first, > 10.2 µM for the second.

“SW948 (large intestine, adherent, top dose 2.56 µM)” and “SW954 (urogenital system, adherent, top dose 10.24 µM)” cannot be ordered by IC50: > 2.56 µM for the first, > 10.2 µM for the second.

“SW962 (urogenital system, adherent, top dose 10.24 µM)” and “SW982 (soft tissue, adherent, top dose 10.24 µM)” cannot be ordered by IC50: > 10.2 µM for the first, > 10.2 µM for the second.

In the case of “SW1088 (glioma, adherent, top dose 10.24 µM)”, the IC50 is reported as > 10.2 µM.
